# In PMC9911399, “Two distinct binding modes provide the RNA-binding protein RbFox with extraordinary sequence specificity”:
# Changes are numbered by the printed parent chain; changes in the protein carry UniProt numbers. The list shows a part of the results.
# T1: RBFOX1 RRM RbFoxmut (Fox-RRM*) (Homo sapiens, UniProt Q9NWB1 109-208, R118D;E147R;N151S;E152T)
# T1 sequence: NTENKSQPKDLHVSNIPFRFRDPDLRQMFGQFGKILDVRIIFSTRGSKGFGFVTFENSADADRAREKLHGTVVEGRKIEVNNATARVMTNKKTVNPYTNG
# B1: GUGACGU (DNA:RNA)
# RNA: GGGAGACCGGAAUUCAGAUUGUCCGUGACGUUUAAAUCCCGUCGUAGCCACCA
# DNA 1: CAATCTGAATTCCGGTCTCCC
# DNA 2: TGGTGGCTACGACGGGATT
# B2: ACCCGCC (DNA:RNA)
# RNA: GGGAGACCGGAAUUCAGAUUGUCCACCCGCCUUAAAUCCCGUCGUAGCCACCA
# DNA 1: CAATCTGAATTCCGGTCTCCC
# DNA 2: TGGTGGCTACGACGGGATT
# B3: AACAAUA (DNA:RNA)
# RNA: B2 RNA with C26A, C28A, G29A, C30U, C31A
# DNA 1: CAATCTGAATTCCGGTCTCCC
# DNA 2: TGGTGGCTACGACGGGATT
# B4: AUGACCC (DNA:RNA)
# RNA: B1 RNA with G25A, G30C, U31C
# DNA 1: CAATCTGAATTCCGGTCTCCC
# DNA 2: TGGTGGCTACGACGGGATT
# B5: UGGGUGU (DNA:RNA)
# RNA: B1 RNA with G25U, U26G, A28G, C29U
# DNA 1: CAATCTGAATTCCGGTCTCCC
# DNA 2: TGGTGGCTACGACGGGATT
# B6: GAAGUUC (DNA:RNA)
# RNA: B2 RNA with A25G, C26A, C27A, C28G, G29U, C30U
# DNA 1: CAATCTGAATTCCGGTCTCCC
# DNA 2: TGGTGGCTACGACGGGATT
# B7: UGGUGCG (DNA:RNA)
# RNA: B2 RNA with A25U, C26G, C27G, C28U, C31G
# DNA 1: CAATCTGAATTCCGGTCTCCC
# DNA 2: TGGTGGCTACGACGGGATT
# B8: GCAUUUA (DNA:RNA)
# RNA: B2 RNA with A25G, C27A, C28U, G29U, C30U, C31A
# DNA 1: CAATCTGAATTCCGGTCTCCC
# DNA 2: TGGTGGCTACGACGGGATT
# B9: UCGCCCG (DNA:RNA)
# RNA: B2 RNA with A25U, C27G, G29C, C31G
# DNA 1: CAATCTGAATTCCGGTCTCCC
# DNA 2: TGGTGGCTACGACGGGATT
# B10: AGGUAGA (DNA:RNA)
# RNA: B1 RNA with G25A, U26G, A28U, C29A, U31A
# DNA 1: CAATCTGAATTCCGGTCTCCC
# DNA 2: TGGTGGCTACGACGGGATT
# B11: AUUGUAC (DNA:RNA)
# RNA: B2 RNA with C26U, C27U, C28G, G29U, C30A
# DNA 1: CAATCTGAATTCCGGTCTCCC
# DNA 2: TGGTGGCTACGACGGGATT
# B12: AUCAUGG (DNA:RNA)
# RNA: B1 RNA with G25A, G27C, C29U, U31G
# DNA 1: CAATCTGAATTCCGGTCTCCC
# DNA 2: TGGTGGCTACGACGGGATT
# B13: AUGAUUA (DNA:RNA)
# RNA: B1 RNA with G25A, C29U, G30U, U31A
# DNA 1: CAATCTGAATTCCGGTCTCCC
# DNA 2: TGGTGGCTACGACGGGATT
# B14: UCACCGU (DNA:RNA)
# RNA: B1 RNA with G25U, U26C, G27A, A28C
# DNA 1: CAATCTGAATTCCGGTCTCCC
# DNA 2: TGGTGGCTACGACGGGATT
# B15: GCGCUCU (DNA:RNA)
# RNA: B2 RNA with A25G, C27G, G29U, C31U
# DNA 1: CAATCTGAATTCCGGTCTCCC
# DNA 2: TGGTGGCTACGACGGGATT
# B16: AAUAUCA (DNA:RNA)
# RNA: B2 RNA with C26A, C27U, C28A, G29U, C31A
# DNA 1: CAATCTGAATTCCGGTCTCCC
# DNA 2: TGGTGGCTACGACGGGATT
# B17: UAUACGA (DNA:RNA)
# RNA: B1 RNA with G25U, U26A, G27U, U31A
# DNA 1: CAATCTGAATTCCGGTCTCCC
# DNA 2: TGGTGGCTACGACGGGATT
# B18: ACUCGGC (DNA:RNA)
# RNA: B2 RNA with C27U, C30G
# DNA 1: CAATCTGAATTCCGGTCTCCC
# DNA 2: TGGTGGCTACGACGGGATT
# B19: GUGGUUC (DNA:RNA)
# RNA: B1 RNA with A28G, C29U, G30U, U31C
# DNA 1: CAATCTGAATTCCGGTCTCCC
# DNA 2: TGGTGGCTACGACGGGATT
# B20: GCCACAA (DNA:RNA)
# RNA: B1 RNA with U26C, G27C, G30A, U31A
# DNA 1: CAATCTGAATTCCGGTCTCCC
# DNA 2: TGGTGGCTACGACGGGATT
# Target: T1, RBFOX1 RRM RbFoxmut (Fox-RRM*)
# Assay: EMSA; HiTS-Eq, 1 nM pool, 10 min; buffer printed only for the single-RNA assays: 10 mM Tris pH 7.5, 150 mM NaCl, 3.4 mM EDTA, 0.001% NP-40, 30 C
# Settings: tags: His6 N-terminal (pET28a); label: 5' 32P
# How it was run: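 Relative association constants, normalised to the cognate motif, were derived by comparing read counts of each RNA species with those of the control reaction. The RNA sequenced was the free fraction, separated by 8% native PAGE after a 10 min equilibration in 50 µL of 1 nM 5′-radiolabelled RNA (7 randomized nucleotides) with increasing concentrations of purified wild-type or mutant RbFox RRM.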
row,Binder,binding signal
1,B1,0.102 KA relative to UGCAUGU
2,B2,0.109 KA relative to UGCAUGU
3,B3,0.0855 KA relative to UGCAUGU
4,B4,0.0678 KA relative to UGCAUGU
5,B5,0.305 KA relative to UGCAUGU
6,B6,0.0483 KA relative to UGCAUGU
7,B7,0.288 KA relative to UGCAUGU
8,B8,0.162 KA relative to UGCAUGU
9,B9,0.0718 KA relative to UGCAUGU
10,B10,0.129 KA relative to UGCAUGU
11,B11,0.154 KA relative to UGCAUGU
12,B12,0.113 KA relative to UGCAUGU
13,B13,0.176 KA relative to UGCAUGU
14,B14,0.13 KA relative to UGCAUGU
15,B15,0.0591 KA relative to UGCAUGU
16,B16,0.0636 KA relative to UGCAUGU
17,B17,0.0443 KA relative to UGCAUGU
18,B18,0.123 KA relative to UGCAUGU
19,B19,0.283 KA relative to UGCAUGU
20,B20,0.0608 KA relative to UGCAUGU
